The values below come from ChEMBL document CHEMBL4888484, “Replenishing the malaria drug discovery pipeline: Screening and hit evaluation of the MMV Hit Generation Library 1 (HGL1) against asexual blood stage Plasmodium falciparum ,using a nano luciferase reporter read-out” (2022).

About 540 (0.36%) of roughly 150,000 compounds showed an effect of 50% or more. The list shows a part of the results.

In the assay the test system is Plasmodium falciparum. Put plainly: Primary screen in NF54 nanoGlo assay, in single point, at 2uM, 72h; a lower Z score goes with more inhibition. It is filed as functional, Erythrocyte. As to conditions: timepoint 72 hour.
Consider `O=C(CCn1cnc2cc(-c3noc(-c4ccccn4)n3)ccc21)N1CCOCC1`, for which the % Inhibition (in general, the change of the read-out against control, counted positive when it falls) was -9% and the Z score came out at 1.86.

In the case of `CN(C)CC(=O)NC1(Cc2cccc(F)c2)CCC1`, the “% Inhibition” value is -4% and the Z score came to 0.67.

Regarding `Cc1nc(N2CCC(c3nc4ccccc4o3)CC2)c2cccnc2n1`, the “% Inhibition” value is -13% and the Z score is 1.22.

For `Cc1nc(N2CCC(C)CC2)ncc1-c1cc(=O)[nH]c(Nc2ccccc2Cl)n1`, the “% Inhibition” value is reported as -9% and the Z score came out at 1.34.

As for `COc1ccc(-c2nccn3cc(C(=O)N4CCN(c5cccc(OC)c5)CC4)nc23)cc1`, the “% Inhibition” value is reported as 37% and the Z score is listed as -4.16.

`CCc1nc(C#N)cc(Oc2cccc3c2OCCC3)n1`: the “% Inhibition” value was -8% and the Z score is 1.48.

As for `C=CCS(=O)(=O)NC(=O)c1cc(C)c(C)cc1Cl`, the “% Inhibition” value came out at 38% and the Z score is recorded as -4.32.

For the compound `Cn1cc(-c2ccc(CNS(=O)(=O)c3cnn(C)c3)cn2)cn1`, the “% Inhibition” value is recorded as 3% and the Z score is recorded as -0.46.

For the compound `CCc1nn(C)cc1CNC(=O)NC[C@H](C)c1ccsc1`, the “% Inhibition” value is given as 5% and the Z score is recorded as -0.76.

Consider `COCc1c(C(=O)NCCN2CCOCC2)cnn1-c1nccc(-c2ccccc2F)n1`, for which the “% Inhibition” value is -3% and the Z score is listed as 0.48.

As for `Cc1c(CNC(=O)c2cncc3ncn(C)c23)cnn1C`, the “% Inhibition” value is reported as 2% and the Z score is reported as -0.28.

Turning to `Cc1oncc1CNC(=O)COc1ccc(Cl)cc1`, the “% Inhibition” value is -7% and the Z score is 1.1.

`COCCn1nnnc1[C@@H]1CN(C(=O)Cc2sc(C)nc2C)CCO1`: the “% Inhibition” value is recorded as 0% and the Z score is -0.07.

For the compound `Cc1cc(N2CCN(C(=O)C(C)(C)C)CC2)nc(N2CCOCC2)n1`, the “% Inhibition” value was -9% and the Z score came to 1.57.

Regarding `COc1ccc(OCc2cc(C(=O)NC3(C(C)C)CC3)n[nH]2)c(Cl)c1`, the “% Inhibition” value is -4% and the Z score is 0.42.

As to `CO[C@@H](CNC(=O)c1cccc(F)c1F)C(C)(C)C`, the “% Inhibition” value is recorded as -4% and the Z score came out at 0.52.

As to `CC(C)S(=O)(=O)CC(=O)NC1CC2CCC1C2` (stereo not given), the “% Inhibition” value is reported as -10% and the Z score was 0.87.

Consider `Cc1nc(C(=O)N2CCc3[nH]c4c(Cl)cccc4c3C2)cs1`, for which the “% Inhibition” value is on record as 9% and the Z score was -1.27.

On to `Cc1n[nH]c(C)c1CNC(=O)c1ccco1`, for which the “% Inhibition” value is reported as -14% and the Z score is 1.92.

Turning to `N#Cc1c(F)c(F)c(F)c(F)c1C#N`, the “% Inhibition” value was -7% and the Z score is recorded as 1.11.

For `C#C[C@H](C)OC(=O)c1cnn(C(C)(C)C)c1`, the “% Inhibition” value is reported as 0% and the Z score stood at 0.01.

As to `O=C(Cn1ncnn1)NC1(c2cc(C(F)(F)F)ccc2Cl)CC1`, the “% Inhibition” value is recorded as 0% and the Z score was 0.05.

For `c1ccc2nc(-c3nccn3-c3ccc4[nH]nnc4c3)ccc2c1`, the “% Inhibition” value is on record as -15% and the Z score came to 2.22.

As to `CCc1ccc(CS(=O)(=O)N2CCN(c3cnccc3C)CC2)cc1`, the “% Inhibition” value is recorded as -8% and the Z score amounted to 1.03.

`CCNc1nc(C)c(C(=O)N(C)CCOc2c(C)cccc2C)s1`: the “% Inhibition” value was 2% and the Z score is reported as -0.33.

Turning to `COc1cccc(NC(=O)Cc2c(C)nc(C)[nH]c2=O)c1`, the “% Inhibition” value was -10% and the Z score was 0.92.

`CC(C)O[C@H]1C[C@@H](NC(=O)c2ccccc2N(C)C)C1`: the “% Inhibition” value is reported as -5% and the Z score was 0.97.

Consider `NS(=O)(=O)c1ccc(Br)cc1Cl`, for which the “% Inhibition” value was -10% and the Z score stood at 1.51.

On to `Cc1nc2c(cc1C(=O)NCCn1nc3c(cc1=O)CCC3)c(=O)n(C)c(=O)n2C`, for which the “% Inhibition” value was 11% and the Z score is given as -1.45.

For the compound `CCC(NC1CCCN(C(=O)OC(C)(C)C)CC1)c1ccncc1` (stereo not given), the “% Inhibition” value was -3% and the Z score is on record as 0.37.

For `Cc1cc(CC(=O)NCC2CCN(c3nc4ccccc4o3)CC2)on1`, the “% Inhibition” value is given as -15% and the Z score is 2.69.

Turning to `O=C(NCC(c1ccc(C(F)(F)F)cc1)N1CCOCC1)C1CC2CCC1C2` (stereo not given), the “% Inhibition” value is -10% and the Z score was found to be 1.48.

Take `CCOCc1nc2c(c(N3CC[C@H](NC(C)=O)C3)n1)CCN(C)CC2`: the “% Inhibition” value is recorded as -16% and the Z score worked out at 2.41.

Turning to `CN(C(=O)OCC(F)(F)F)C1CCCCC1`, the “% Inhibition” value turned out to be 0% and the Z score was 0.05.

Turning to `Cc1cc(C(F)(F)F)n(C[C@@H](C)CNC(=O)c2cccn3cnnc23)n1`, the “% Inhibition” value is -7% and the Z score was 1.27.

As to `CCCCCOCC(=O)N[C@@H](C)c1cnccn1`, the “% Inhibition” value is listed as -10% and the Z score came to 1.99.

In the case of `Cc1cc(C)nc(N2CCN(c3nc(N)nc4c3CCNC4)CC2)n1`, the “% Inhibition” value was -15% and the Z score is recorded as 1.86.

Consider `Cc1sc(-c2nnc(C(=O)N3CCCCC3)o2)cc1S(=O)(=O)Nc1cccc(F)c1`, for which the “% Inhibition” value was -14% and the Z score is recorded as 2.02.

Turning to `COC(=O)N1CCN(C(=O)CCN(Cc2ccccc2)C(C)=O)CC1`, the “% Inhibition” value is -7% and the Z score is 0.71.

`CC(C)N(Cc1ccccc1OS(C)(=O)=O)C(=O)NC(C)(C)C`: the “% Inhibition” value is on record as -1% and the Z score is on record as 0.15.

Consider `Cc1ccc(-c2nc(Cn3cnc4nc5c(cc4c3=O)C[C@@H](C)CC5)c(C)o2)cc1`, for which the “% Inhibition” value is recorded as -5% and the Z score is listed as 0.64.

As to `COc1ccc(CCS(=O)(=O)NC[C@@](O)(c2ccco2)C2CC2)cc1`, the “% Inhibition” value amounted to 3% and the Z score is on record as -0.5.

With `Cn1nncc1C1(O)CN(c2ccc3nccnc3n2)C1`, the “% Inhibition” value is given as -7% and the Z score is 1.1.

Turning to `C[C@H]1CC(=O)Nc2ccccc2N1C(=O)c1cscn1`, the “% Inhibition” value was 30% and the Z score is reported as -3.4.

As for `CS(=O)(=O)[C@@H]1CCCC[C@H]1NC(=O)NC1CCCc2sccc21` (stereo not given in full), the “% Inhibition” value turned out to be 6% and the Z score is -0.95.

For `CCOc1cc([C@H]2C(C(=O)NCc3ccccc3)=C(C)Nc3ncnn32)ccc1OCc1ccc(Cl)cc1Cl`, the “% Inhibition” value is recorded as -20% and the Z score came out at 2.12.

With `O=C(CCOc1ccc(F)cc1Cl)N1CCNCC1`, the “% Inhibition” value is listed as -8% and the Z score worked out at 1.52.

For `N#Cc1ccc(OC2CCOCC2)cc1`, the “% Inhibition” value was -17% and the Z score was determined as 2.09.

Turning to `O=C(O)c1ccccc1CN1C[C@@H]2Oc3c(F)ccc(F)c3O[C@@H]2C1`, the “% Inhibition” value was 3% and the Z score is listed as -0.58.

Take `O=C(NC1C2Cc3ccccc3C21)N1CCCC(c2cn[nH]c2)C1` (stereo not given): the “% Inhibition” value was 0% and the Z score is given as -0.06.

Regarding `Cc1cccnc1[C@H](C)NC(=O)c1cc(Cl)c[nH]c1=O`, the “% Inhibition” value was -8% and the Z score came out at 1.32.

In the case of `O=C(CNC(=O)c1occc1Br)Nc1cn[nH]c1`, the “% Inhibition” value is -9% and the Z score is recorded as 1.19.

Turning to `N/C(=N\O)[C@H]1CC(=O)N(Cc2ccc3c(c2)OCO3)C1`, the “% Inhibition” value is given as -16% and the Z score is given as 1.83.

As for `COc1cccn(CC(=O)N2CCC[C@H](c3nc4ccccc4n3C)C2)c1=O`, the “% Inhibition” value is -10% and the Z score turned out to be 1.62.

For the compound `CC1CCC(O)C(C2CCCCN2C(=O)c2cc(Cl)cn2C)C1` (stereo not given), the “% Inhibition” value is -16% and the Z score is 2.11.
